From paper PMC12619835 come the findings set out here.

By UniProt entry, the sequences of proteins in these tests, tags left out.
UniProt Q13887: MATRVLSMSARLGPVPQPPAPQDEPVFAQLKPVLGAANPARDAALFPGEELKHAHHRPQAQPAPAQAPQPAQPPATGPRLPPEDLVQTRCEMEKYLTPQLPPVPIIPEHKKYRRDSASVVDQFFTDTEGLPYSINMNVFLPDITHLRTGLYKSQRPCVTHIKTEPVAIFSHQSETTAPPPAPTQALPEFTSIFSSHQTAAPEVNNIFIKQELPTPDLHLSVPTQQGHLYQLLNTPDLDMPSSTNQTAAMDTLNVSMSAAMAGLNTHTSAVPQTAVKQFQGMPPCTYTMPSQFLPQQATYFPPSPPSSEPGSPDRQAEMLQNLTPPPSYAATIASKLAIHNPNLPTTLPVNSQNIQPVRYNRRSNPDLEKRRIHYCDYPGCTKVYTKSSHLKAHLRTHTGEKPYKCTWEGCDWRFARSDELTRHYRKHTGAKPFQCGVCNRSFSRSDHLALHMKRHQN
UniProt O43474: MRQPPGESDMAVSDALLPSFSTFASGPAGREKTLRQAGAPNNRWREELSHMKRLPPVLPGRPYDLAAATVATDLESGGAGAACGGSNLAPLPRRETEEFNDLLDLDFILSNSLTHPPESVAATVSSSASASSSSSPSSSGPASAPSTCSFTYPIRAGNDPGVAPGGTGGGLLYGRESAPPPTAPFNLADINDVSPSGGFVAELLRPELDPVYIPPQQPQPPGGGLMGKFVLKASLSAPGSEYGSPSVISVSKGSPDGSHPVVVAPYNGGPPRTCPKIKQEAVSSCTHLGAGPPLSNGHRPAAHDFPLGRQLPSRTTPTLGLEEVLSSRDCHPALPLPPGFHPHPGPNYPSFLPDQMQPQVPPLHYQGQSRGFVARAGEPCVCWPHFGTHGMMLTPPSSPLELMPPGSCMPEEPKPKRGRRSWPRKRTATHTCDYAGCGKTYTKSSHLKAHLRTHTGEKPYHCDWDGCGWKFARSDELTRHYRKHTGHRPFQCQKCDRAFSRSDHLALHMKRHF
UniProt P10242: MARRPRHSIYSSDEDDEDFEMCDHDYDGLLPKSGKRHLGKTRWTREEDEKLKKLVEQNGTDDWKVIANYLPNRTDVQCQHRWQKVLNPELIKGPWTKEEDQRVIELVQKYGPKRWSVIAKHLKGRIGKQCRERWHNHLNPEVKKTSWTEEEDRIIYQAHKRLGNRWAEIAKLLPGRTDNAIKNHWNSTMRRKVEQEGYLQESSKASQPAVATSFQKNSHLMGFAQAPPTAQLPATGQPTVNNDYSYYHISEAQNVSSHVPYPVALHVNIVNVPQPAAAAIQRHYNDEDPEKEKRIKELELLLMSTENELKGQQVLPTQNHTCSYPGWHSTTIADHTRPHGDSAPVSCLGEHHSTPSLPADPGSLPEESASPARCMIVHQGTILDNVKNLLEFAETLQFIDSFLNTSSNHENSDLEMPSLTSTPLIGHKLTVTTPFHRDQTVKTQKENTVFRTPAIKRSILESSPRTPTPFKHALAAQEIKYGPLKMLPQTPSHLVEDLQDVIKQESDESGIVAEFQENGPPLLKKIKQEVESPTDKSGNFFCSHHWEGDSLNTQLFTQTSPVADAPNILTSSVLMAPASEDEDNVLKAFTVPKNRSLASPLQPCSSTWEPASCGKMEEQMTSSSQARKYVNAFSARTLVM
UniProt P01106: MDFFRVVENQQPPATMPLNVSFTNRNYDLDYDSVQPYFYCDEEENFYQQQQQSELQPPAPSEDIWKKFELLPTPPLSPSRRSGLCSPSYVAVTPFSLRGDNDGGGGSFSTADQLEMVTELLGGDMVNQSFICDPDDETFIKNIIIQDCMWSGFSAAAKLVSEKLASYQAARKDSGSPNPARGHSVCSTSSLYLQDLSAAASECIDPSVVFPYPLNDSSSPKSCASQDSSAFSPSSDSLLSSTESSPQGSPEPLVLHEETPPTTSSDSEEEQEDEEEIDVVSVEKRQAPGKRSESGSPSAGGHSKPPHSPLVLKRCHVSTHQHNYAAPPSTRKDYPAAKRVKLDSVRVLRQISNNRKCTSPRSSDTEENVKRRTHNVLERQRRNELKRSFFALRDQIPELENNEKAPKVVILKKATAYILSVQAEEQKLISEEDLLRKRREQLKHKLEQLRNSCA
UniProt Q92993: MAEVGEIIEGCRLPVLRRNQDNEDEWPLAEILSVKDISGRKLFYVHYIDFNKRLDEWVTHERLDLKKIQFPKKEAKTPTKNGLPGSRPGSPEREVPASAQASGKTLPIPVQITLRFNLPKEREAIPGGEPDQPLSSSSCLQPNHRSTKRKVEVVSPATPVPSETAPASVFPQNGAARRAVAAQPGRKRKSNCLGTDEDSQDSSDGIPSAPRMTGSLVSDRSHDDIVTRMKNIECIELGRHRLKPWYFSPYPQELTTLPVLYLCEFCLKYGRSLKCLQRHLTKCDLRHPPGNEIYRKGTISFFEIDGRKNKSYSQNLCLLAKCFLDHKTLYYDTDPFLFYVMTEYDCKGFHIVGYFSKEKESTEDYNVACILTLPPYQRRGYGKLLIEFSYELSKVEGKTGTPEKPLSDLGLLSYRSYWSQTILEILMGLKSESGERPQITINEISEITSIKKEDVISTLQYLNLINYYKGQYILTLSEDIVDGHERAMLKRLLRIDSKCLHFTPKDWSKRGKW
UniProt Q9Y265: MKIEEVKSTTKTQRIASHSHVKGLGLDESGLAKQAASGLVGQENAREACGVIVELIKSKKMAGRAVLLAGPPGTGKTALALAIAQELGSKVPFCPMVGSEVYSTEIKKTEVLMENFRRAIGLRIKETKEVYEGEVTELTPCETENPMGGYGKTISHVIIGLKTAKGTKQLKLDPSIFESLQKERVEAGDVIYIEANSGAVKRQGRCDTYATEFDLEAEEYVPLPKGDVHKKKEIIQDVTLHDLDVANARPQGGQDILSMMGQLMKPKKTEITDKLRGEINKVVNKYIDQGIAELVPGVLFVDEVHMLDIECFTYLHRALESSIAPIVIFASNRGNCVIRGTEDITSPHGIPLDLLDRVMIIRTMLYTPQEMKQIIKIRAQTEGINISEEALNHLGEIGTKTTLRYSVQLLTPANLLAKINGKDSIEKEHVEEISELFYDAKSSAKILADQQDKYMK
UniProt Q6ZRS2: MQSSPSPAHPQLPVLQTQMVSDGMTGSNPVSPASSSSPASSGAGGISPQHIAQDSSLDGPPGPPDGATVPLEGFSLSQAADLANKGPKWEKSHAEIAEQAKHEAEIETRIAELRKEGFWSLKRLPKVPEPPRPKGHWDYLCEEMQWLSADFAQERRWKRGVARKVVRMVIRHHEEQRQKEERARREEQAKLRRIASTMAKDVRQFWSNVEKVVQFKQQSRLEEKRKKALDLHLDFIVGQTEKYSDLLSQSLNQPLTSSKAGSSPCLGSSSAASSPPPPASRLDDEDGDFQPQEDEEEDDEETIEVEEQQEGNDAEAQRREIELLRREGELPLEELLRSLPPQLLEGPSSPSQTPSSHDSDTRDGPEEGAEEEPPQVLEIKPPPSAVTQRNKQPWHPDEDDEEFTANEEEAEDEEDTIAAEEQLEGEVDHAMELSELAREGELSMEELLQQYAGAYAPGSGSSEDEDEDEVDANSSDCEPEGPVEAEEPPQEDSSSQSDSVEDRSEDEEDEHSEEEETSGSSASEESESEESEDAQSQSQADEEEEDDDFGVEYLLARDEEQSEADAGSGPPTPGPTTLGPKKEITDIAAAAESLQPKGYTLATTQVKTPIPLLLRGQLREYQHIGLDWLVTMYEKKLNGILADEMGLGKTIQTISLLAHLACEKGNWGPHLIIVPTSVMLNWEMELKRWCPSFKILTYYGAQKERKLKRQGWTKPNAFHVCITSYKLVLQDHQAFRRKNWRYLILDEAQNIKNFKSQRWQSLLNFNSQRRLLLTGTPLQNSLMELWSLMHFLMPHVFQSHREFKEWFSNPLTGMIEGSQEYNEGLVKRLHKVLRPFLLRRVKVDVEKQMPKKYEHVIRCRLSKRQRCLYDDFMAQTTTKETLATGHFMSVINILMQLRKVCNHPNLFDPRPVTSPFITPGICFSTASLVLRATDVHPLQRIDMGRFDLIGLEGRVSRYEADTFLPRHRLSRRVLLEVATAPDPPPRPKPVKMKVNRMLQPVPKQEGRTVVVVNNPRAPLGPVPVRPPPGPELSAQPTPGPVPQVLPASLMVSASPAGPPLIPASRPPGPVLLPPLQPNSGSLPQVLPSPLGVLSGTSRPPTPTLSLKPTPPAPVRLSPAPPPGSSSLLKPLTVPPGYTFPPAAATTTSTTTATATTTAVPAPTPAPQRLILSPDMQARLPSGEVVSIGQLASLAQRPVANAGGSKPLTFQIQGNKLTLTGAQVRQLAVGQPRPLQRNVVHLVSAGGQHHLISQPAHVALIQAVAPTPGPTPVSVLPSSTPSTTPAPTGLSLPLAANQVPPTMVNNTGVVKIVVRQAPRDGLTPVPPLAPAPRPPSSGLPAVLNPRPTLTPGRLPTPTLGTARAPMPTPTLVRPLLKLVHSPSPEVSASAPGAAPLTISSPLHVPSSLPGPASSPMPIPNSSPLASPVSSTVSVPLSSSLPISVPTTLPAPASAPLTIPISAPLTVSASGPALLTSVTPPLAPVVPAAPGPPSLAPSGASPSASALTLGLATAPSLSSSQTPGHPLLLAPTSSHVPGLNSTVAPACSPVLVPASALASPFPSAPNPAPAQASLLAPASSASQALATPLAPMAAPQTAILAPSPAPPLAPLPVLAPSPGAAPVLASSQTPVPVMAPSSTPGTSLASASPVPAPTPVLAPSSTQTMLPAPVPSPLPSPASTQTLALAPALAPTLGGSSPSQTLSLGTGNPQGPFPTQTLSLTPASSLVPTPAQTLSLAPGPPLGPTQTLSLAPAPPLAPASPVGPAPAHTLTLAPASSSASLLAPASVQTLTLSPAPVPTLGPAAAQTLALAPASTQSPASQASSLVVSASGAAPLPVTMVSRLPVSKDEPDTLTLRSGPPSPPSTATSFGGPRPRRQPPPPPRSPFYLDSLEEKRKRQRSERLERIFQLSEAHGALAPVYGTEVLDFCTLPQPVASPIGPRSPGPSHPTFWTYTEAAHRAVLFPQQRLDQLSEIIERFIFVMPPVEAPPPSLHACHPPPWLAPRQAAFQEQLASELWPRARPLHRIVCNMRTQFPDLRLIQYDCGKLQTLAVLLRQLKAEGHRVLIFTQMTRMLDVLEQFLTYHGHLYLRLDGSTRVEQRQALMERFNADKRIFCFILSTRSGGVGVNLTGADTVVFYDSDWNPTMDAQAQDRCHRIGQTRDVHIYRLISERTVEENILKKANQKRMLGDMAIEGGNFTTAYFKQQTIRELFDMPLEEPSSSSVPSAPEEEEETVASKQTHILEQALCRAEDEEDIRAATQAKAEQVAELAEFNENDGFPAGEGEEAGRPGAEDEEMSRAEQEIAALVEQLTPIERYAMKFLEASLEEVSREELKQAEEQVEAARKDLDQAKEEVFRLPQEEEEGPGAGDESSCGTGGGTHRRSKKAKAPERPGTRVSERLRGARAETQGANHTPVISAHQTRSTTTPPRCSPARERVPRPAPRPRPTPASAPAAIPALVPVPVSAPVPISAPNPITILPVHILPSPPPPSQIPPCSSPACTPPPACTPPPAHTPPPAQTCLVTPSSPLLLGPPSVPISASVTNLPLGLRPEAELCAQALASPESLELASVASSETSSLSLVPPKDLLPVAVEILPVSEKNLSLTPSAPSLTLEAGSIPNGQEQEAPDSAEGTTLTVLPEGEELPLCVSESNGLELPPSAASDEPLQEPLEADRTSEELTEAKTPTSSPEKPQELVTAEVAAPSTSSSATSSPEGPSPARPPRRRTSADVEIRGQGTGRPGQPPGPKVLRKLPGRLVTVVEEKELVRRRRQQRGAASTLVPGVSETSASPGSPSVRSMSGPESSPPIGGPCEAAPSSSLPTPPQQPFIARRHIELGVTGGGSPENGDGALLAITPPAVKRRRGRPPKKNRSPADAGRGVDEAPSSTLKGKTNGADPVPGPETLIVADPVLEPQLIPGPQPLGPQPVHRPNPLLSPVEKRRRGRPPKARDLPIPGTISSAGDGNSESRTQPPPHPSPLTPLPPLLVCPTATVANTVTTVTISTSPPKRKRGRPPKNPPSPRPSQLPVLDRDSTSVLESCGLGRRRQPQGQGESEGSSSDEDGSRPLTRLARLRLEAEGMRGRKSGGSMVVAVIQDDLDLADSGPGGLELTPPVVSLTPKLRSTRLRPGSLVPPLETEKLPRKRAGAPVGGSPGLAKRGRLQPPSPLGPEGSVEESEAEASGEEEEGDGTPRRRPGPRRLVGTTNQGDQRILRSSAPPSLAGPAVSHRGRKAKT

These are yes or no findings as the source states them, for the method shown. For some assays here: In cells and extracts the contact can be indirect. Some binding calls cover weakened binding; strength is not graded here.

In test [1] the target is FLAG-KLF5 (human) (UniProt Q13887). Kind of test: co-IP; anti-FLAG co-immunoprecipitation-Western blot of FLAG-KLF5 (FLAG-GFP as negative control); blots for RUVBL1, RUVBL2, RPAP3, SRCAP, TIP60, INO80; cell line not stated.
Test [2] addresses KLF4 (UniProt O43474). Kind of test: co-IP; HEK293T transfected with a FLAG-tagged cDNA, N-terminal HA-tagged RUVBL1 and C-terminal HA-tagged RUVBL2; nuclear lysates on M2 FLAG agarose overnight, washes with 150-350 mM NaCl, 4 °C; HA immunoblot; in some experiments CB-6644 for 4 h before the IP and in lysis and wash buffers. For orientation: In western blotting, separated proteins are transferred to a membrane and probed.

In test [3] the target is MYB (UniProt P10242). Described as above.
For test [4], the target named is MYC (UniProt P01106). The test is described as above.
Test [5] addresses T1, POU2F3 (UniProt Q9UKI9).
T1 sequence: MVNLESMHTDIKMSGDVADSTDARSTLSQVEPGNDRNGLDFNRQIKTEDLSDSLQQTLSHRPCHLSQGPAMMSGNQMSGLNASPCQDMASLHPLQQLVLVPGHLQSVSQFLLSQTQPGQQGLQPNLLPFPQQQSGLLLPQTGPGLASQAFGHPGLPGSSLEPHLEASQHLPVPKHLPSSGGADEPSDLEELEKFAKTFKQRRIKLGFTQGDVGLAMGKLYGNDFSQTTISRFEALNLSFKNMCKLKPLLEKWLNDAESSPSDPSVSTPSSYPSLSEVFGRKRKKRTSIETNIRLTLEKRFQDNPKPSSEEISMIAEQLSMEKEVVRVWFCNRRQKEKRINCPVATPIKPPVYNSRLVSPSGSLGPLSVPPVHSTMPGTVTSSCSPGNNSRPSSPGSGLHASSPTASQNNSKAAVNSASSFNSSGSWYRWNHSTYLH
The test is described as above.

Test [6] deals with SOX10 (UniProt P56693). The description is as above.
Test [7] addresses recombinant MBP-tagged KLF5 (human) (UniProt Q13887). Kind of test: pull-down; MBP-KLF5 (10 μg) or MBP (5 μg) on amylose resin; 10 μg RUVBL1, 10 μg RUVBL2 or 20 μg RUVBL1/2 hetero-hexamer added for 2 h in 50 mM Na3PO4 pH 7.5, 0.1 mM EDTA, 200 mM NaCl, 1 mM DTT, 5% glycerol; washes with 250 mM NaCl; maltose elution; Western blot; 4 °C; both purified.

As for TIP60 (from UniProt Q92993 1-513), the binding result in test [1] is recorded as “no binding”.
For the substance “N-terminal HA-tagged RUVBL1 (from UniProt Q9Y265 1-456)”, the binding entry in test [2] was “no binding”; in test [3] it was “binds”; in test [4] it was “binds”; in test [5] it was “binds”; in test [6] it was “binds”.
Take SRCAP (from UniProt Q6ZRS2 1-3230): in test [1], the binding result is reported as “no binding”.
Consider “RUVBL1 (purified, recombinant, alone) (from UniProt Q9Y265 1-456)”, for which the binding entry in test [7] is “no binding (tested: 10 μg of RUVBL1 per IP)”.
